Measured values from the RNAGym collection of RNA variant scans (doi:10.7554/elife.90254).
The source gives no read counts; variants with many changes may rest on few reads.

B1: LINE1-mini (parent)
chain: GGCAGAGCUCAACACAGCGUGGCAAAGUGGCUGUGGCUAGACUGCC

Variants of: B1
Assay: self-cleavage, relative activity (ratio to wild type); higher = more cleavage; in vitro, sequencing; the parent is a self-cleaving ribozyme

Row | Variant | self-cleavage
1 | GGCUUAGCUCAAUACAGCGUGGCAAAGUGGCUGUGGCUAGACUGCC [A4U G5U C13U] | 0.18
2 | GGCAGAGCUCAACACAACGUGGCAAAGUGGCUGUGGAUACACUUCC [G17A C37A G40C G44U] | 0.02
3 | GGAAGAGCUCAACACACCGUGACAAAGUGGCUGUGGCUAGACUGCA [C3A G17C G22A C46A] | 0.52
4 | GGCACAGCUCAACACAGCGUGGCAAAGUGGCUGCGGCUAGACUGGC [G5C U34C C45G] | 0.02
5 | GGCUGAGCUCAAUACAGCGUGGCAAAGUGGCAGUGGCUAGUCUGCC [A4U C13U U32A A41U] | 0.04
6 | GGCAGAGCGCACCACUGCCUGACAAAGUGGCUGUGGCUAGACUGCC [U9G A12C A16U G19C G22A] | 0.02
7 | GGCAGAGCUCAUCACAGCGUGGCAGAGUGGCUGAGGCUAGACUGCC [A12U A25G U34A] | 0.04
8 | GGCUGAGCUCAACACAGCGUGGCAAAGUGGCCGUGGCUCGACUGCC [A4U U32C A39C] | 0.11
9 | GGCAGAUCUCAACACAGCGUGGCAACGUGGGUGUGGCUAGACUGCC [G7U A26C C31G] | 0.01
10 | GGCAUAGCUAAACACACCGCGGCAAAGUGGCUGUGGCUAGACUGCC [G5U C10A G17C U20C] | 0.04
11 | GGAAGAGCUCAACACAGCGUGGCAAAGUGGCUGUGCCCAGACUGUC [C3A G36C U38C C45U] | 0.08
12 | GGCAGAGCUCGGCACAGCGUGGCAAAGUGGCUGUGACUAGACUGCC [A11G A12G G36A] | 0.02
13 | GGCAGAGCUCACCACAGCGUGGCAAAGUGCCUGUGGCUAGCCUGCC [A12C G30C A41C] | 0.01
14 | GGUAGAGAUCAACACAGCGUGGCAAAGUGGCUGUGGCUAGACUGCA [C3U C8A C46A] | 0.41
15 | GACUGAGCUCAACCCAGCGUGGCAAAGUGGCUGUGGCUAGACUGCC [G2A A4U A14C] | 0.27
16 | GGCAGAGCUCAAUACAGCGUGGCAAUGUGGCUGUGGCUAGACUGCU [C13U A26U C46U] | 0.09
17 | GGCAGAGCUCAUCACAGAGUGGCAAAGUGGUUGUGGCUAGACUGCC [A12U C18A C31U] | 0.04
18 | GGCAGAGCUCUACACAGCGUGGCAAAAUCGCUGUGGCUAGACUGCC [A11U G27A G29C] | 0.03
19 | CGCAGAGCUCAACAAAGCUUGGCAAAGUGGCUGUGGUUAGACUGCC [G1C C15A G19U C37U] | 0

Row | Variant | self-cleavage
20 | GGCAGAGGUCAACAUAGCGUUGCAAAGAGGCUGUGGCUUUACUGCC [C8G C15U G21U U28A A39U G40U] | 0.02
21 | GGCAGAGCACAACUCAACGUGGCAAGGUGGCUGUGGCUAGACUUCC [U9A A14U G17A A26G G44U] | 0.08
22 | GUCCGAGCUCAACACAGCGUGGCAAAGUGCCUGUGGCUAGACUGCC [G2U A4C G30C] | 0.01
23 | GGCAGGGCGCAACACAGCGUGGCAAAGUGGCUGUGGUUAGACUGCC [A6G U9G C37U] | 0.03
24 | GGCAGAGCUCAUCAUAGCGUGGCAAAGUGGCUGGGGCUAGACUGCC [A12U C15U U34G] | 0.06
25 | GGCACAGCACAACAAAACGUUGCAAAGUGGCUGUGGCUAGACUGCC [G5C U9A C15A G17A G21U] | 0.05
26 | GGCAGAGCUCAAUACAGCGUGGCAAAGUGGCUGUGGCUUGACUUUC [C13U A39U G44U C45U] | 0.07
27 | GGUAGAGCUCAACACAGGGUGGCACAUUGGCUGUGGCUAGACUGCC [C3U C18G A25C G27U] | 0.79
28 | GGCAGAGCUCAACACAGCGUUGCAAAGUGGCUUUGCCUAGACUGCC [G21U G33U G36C] | 0.02
29 | GGCAGAUCUCAUCACAGCGUGGCAAAAUGGCUGUGGCUUGACCGCC [G7U A12U G27A A39U U43C] | 0.07
30 | GGCAGAGCUCAACACACCGUGGGAAUGUGUCUGUGGCUAGACUGCC [G17C C23G A26U G30U] | 0.01
31 | GCCAGAGCUAAACACCGCGUGGAAAAGUAGCUGUGGCUAGACUGCC [G2C C10A A16C C23A G29A] | 0.01
32 | GGCAGAGUUCAACACAGCGUGGCAAAGUGGAUGUAGCUAGACUGCC [C8U C31A G35A] | 0.08
33 | GGCAGAGCCCACAACAGCGUGGCAAAGUGGGUGUGGCUAGACUGCC [U9C A12C C13A C31G] | 0.04
34 | UGCAGAGCUCAGCACAGCGUGGCAUCGUGGAUGUGGCCAGGCCGCC [G1U A12G A25U A26C C31A U38C A41G U43C] | 0.02
35 | GGCAGAGCUCACCACAACGUGGCAAAGUGGCUGUGGCUAGCCUGGC [A12C G17A A41C C45G] | 0.01
36 | GGCAGAGCUCACCACAGCGUGGCAAAGUGGGUGUGGCUAGACUCUC [A12C C31G G44C C45U] | 0
37 | GGCAGAGCUCAACGCAGCGUGGCCCAGUGGCUGUGGCUAGACUGCC [A14G A24C A25C] | 0.04
38 | GCCACAGCUCAACACAGCGUGGCAAAGAGGCUGUGGUUAGACUGUC [G2C G5C U28A C37U C45U] | 0.01

Row | Variant | self-cleavage
39 | GGAAGAGCACAACAAAGCGUGGCAAACUGGCUUUGGCUAGACUGCC [C3A U9A C15A G27C G33U] | 0.13
40 | GACAGAGAUCAACACUGCGUGGCCAUGUGGCUGUGGCUAGACUACC [G2A C8A A16U A24C A26U G44A] | 0.27
41 | AGAAGUGCUCUCCACAGCGUGGCAAAGUGGCUGUGGCUAGACUGCC [G1A C3A A6U A11U A12C] | 0.09
42 | GGCAGAGCUCAUCACAGCGUGGCAAUGGGGCAGUGGCUAGACUGCC [A12U A26U U28G U32A] | 0.02
43 | GCCAGAGCUCAACAGUGCGUGGCAAUGUGGCUGUGGCUAGACUGCC [G2C C15G A16U A26U] | 0.04
44 | AGCUGAGCUCAACCCAGCGUGGCAAACUGGCUGUGGCUAGCCUGCC [G1A A4U A14C G27C A41C] | 0.05
45 | GGCGGAUCUCAACACAGCGUGGCAAAGUGGCUGUGGCUAGACUCCC [A4G G7U G44C] | 0.06
46 | GGCAGAGUUCAACACAGCGUGGCAAAGUGGCUGUGGCCAGGCUGCC [C8U U38C A41G] | 0
47 | GGCAGACAUCAACACAGAGUGGCAAAGUGGCUGUGGCUAGACUGCC [G7C C8A C18A] | 0.15
48 | GCCAGAGCUCCACUCAGCGUGGCAAAGUUGCUGUGGCUAGACUGCC [G2C A11C A14U G29U] | 0.06
49 | GGCAGAGCUCAACACAGCGUGGCUAAGUGGCUGAGGCUAGCCUGCC [A24U U34A A41C] | 0.03
50 | GGCAGAGCUGAACACAUCGUGGUUAAGUGGCUGUGGCUAGACUGUC [C10G G17U C23U A24U C45U] | 0.03
51 | GGCCGAGGUCAACACAGGGUGGCAAAGUGGCAGUAGCUAGACUGCC [A4C C8G C18G U32A G35A] | 0.02
52 | GGCAGAGCUCACCACAGCGUUGCACAGUGGCUGUGGCUAGACGGCC [A12C G21U A25C U43G] | 0
53 | GGCAGAGAUCAACAAAGCGUGGGAAAGUGACUGUGGCUAGACUGCC [C8A C15A C23G G30A] | 0.02
54 | GUAAGAGCUCAACACAUCGUGGCAAAGUGGCUGUGGGUAGACUGCC [G2U C3A G17U C37G] | 0.06
55 | GGCGGAGCUCAACACAGCGUUGCAAAGUGGCUAUGGCUAGACUGCC [A4G G21U G33A] | 0.04
56 | GGCAGAGCUCCAUAGAGCGUGGCAAAGUGGCUGUGGCUAGACUGCC [A11C C13U C15G] | 0.01
